Measurements: PubChem BioAssay AID1745847 (National Center for Advancing Translational Sciences (NCATS), 2022)
The whole screen tested about 2,100 compounds, of which about 670 (32%) were called active. Inconclusive results, whose numbers are uncertain, are shown with a selection of clear calls. Calls follow the shape of the dose curve; as a rule, active = well fitted inhibition curve with a large enough effect; inconclusive = small, poorly fitted or top-dose-only effect; inactive = no such curve, though single readings can be large or run the other way. Potencies of inconclusive entries are doubtful fits and often do not repeat.

Assay: CMV-Luciferase Counterscreen for Inhibitors of ATXN expression; also: nearly all actives have a fitted effect of over 55% in size
Conditions: HEK-293 CMV-luciferase reporter, luminescence, 24 h; series mostly up to 57.5 µM
% is scaled to controls: 0 for no effect and ±100 for the full control effect; potency is read from the fitted curve at half-maximal effect; tags tell the direction and shape of the fitted curve.

Structure (SMILES) | Potency | activity change, negative = inhibition
COc1ccc(-c2cc(C3CCN(c4ccc(C(C)=O)cc4[N+](=O)[O-])CC3)[nH]n2)cc1 | active: 11.2 µM | 
C=CCn1c(COc2ccccc2)nnc1SCC(=O)N/N=C/c1cc(Cl)ccc1O | inactive | 
O=C(c1ccoc1)N1CCN(c2cc(-c3cccnc3)nc3cc(-c4cccc(Cl)c4)nn23)CC1 | active: 28.2 µM | 
CC(C(=O)c1ccc(-c2ccccc2)cc1)[n+]1cccc(NC(=O)c2ccccc2)c1 (configuration not stated) |  | inactive: -21.8% [at 11.4 µM]
CC(=NNC(=O)c1ccncc1)c1ccc2ccccc2c1O | active: 0.794 µM | 
COc1ccc(CNCCC(c2ccc(OC(C)C)cc2)c2ccccc2OC)cc1 (configuration not stated) | inconclusive: 3.16 µM [inhibitor, partial curve, poor fit] | 
COc1ccccc1C(CCNCc1ccccc1)c1ccc(OC(C)C)cc1 (configuration not stated) | inconclusive: 3.98 µM [inhibitor, partial curve, poor fit] | 
Cc1cc2sc3ccc(C#CC4(O)CCCCC4)cc3c(=O)c2cc1C | active: 0.0316 µM | 
COC(=O)C1=C(C)N(Cc2ccccc2)C(=NCCc2ccccn2)N[C@H]1c1cccc(C(F)(F)F)c1 | inconclusive: 7.08 µM [inhibitor, single point] | 
CSc1nc(C)cc(OCC(=O)N/N=C/c2ccccc2O)n1 | inconclusive: 1.78 µM [inhibitor, partial curve, poor fit] | 
Cc1cccc2c1-c1sc(C(=O)Nc3ccccc3N3CCN(C)CC3)cc1CO2 | active: 22.4 µM | 
CCOc1ccc(-n2c(-c3ccccc3)c[n+]3c2CCCCC3)cc1 | active: 3.55 µM | 
Cc1ccc(-c2cc(-c3ccccc3)nc(NN)n2)cc1 | inconclusive: 35.5 µM [inhibitor, single point] | 
CC(=O)c1ccc(S(=O)(=O)N2CCN(CCOc3ccc(Br)cc3)CC2)cc1 | inconclusive: 1.41 µM [inhibitor, partial curve, poor fit] | 
CC(=O)c1ccc(N2CCN(CC(O)COC(c3ccccc3)c3ccccc3)CC2)cc1 (configuration not stated) | inconclusive: 8.91 µM [inhibitor, single point] | 
O=[N+]([O-])c1ccc(O)c2ncccc12 | active: 7.08 µM | 
Cn1c(COc2ccc(Cl)cc2)nnc1SCc1ncc(-c2ccccc2)o1 | inconclusive: 31.6 µM [inhibitor, single point] | 
CN(C)CCCN(C(=O)c1ccco1)c1nc2ccc(Br)cc2s1 | inconclusive: 39.8 µM [inhibitor, single point] | 
c1ccc(Cn2c(-c3ccccc3)c[n+]3c2SCCC3)cc1 | inconclusive: 17.8 µM [inhibitor, partial curve] | 
COc1cc(NC(=O)c2cccc3c(-c4cccnc4)coc23)cc(OC)c1OC | inconclusive: 3.16 µM [inhibitor, partial curve, poor fit] | 
N#C/C(=C\C=C\c1ccccc1[N+](=O)[O-])C(=O)NC1CCCCC1 | inconclusive: 22.4 µM [inhibitor, single point] | 

Structure (SMILES) | Potency | activity change, negative = inhibition
CC(Oc1ccc(Br)cc1)C(=O)Nc1nc(-c2ccccn2)cs1 (configuration not stated) | inconclusive: 1.58 µM [inhibitor, partial curve, poor fit] | 
COc1ccc(C)cc1NC(=O)COC(=O)c1c(C)nn(-c2ccccc2)c1C | inconclusive: 25.1 µM [inhibitor, single point] | 
CCc1cc2c(N3CCN(c4nnc(CC)s4)CC3)ncnc2s1 | inconclusive: 2.51 µM [inhibitor, partial curve] | 
CCC(=O)NC(C)c1cc(Cl)c2cccnc2c1O (configuration not stated) | inconclusive: 2.51 µM [inhibitor, partial curve, poor fit] | 
Cc1cc2nc(-c3nnnn3Cc3ccccc3)c(=O)[nH]c2cc1C |  | inactive: -9.85% [at 11.4 µM]
Cc1cc(O)c(C(C)C)cc1N=Cc1ccccc1[N+](=O)[O-] | inactive | 
Cc1cc(C)c(O)c(CN(C)Cc2cc(Cl)cc(Cl)c2O)c1 | active: 10 µM | 
O=C1N/C(=N/N=C/c2ccccc2O)SC1Cc1ccc(F)cc1 (configuration not stated) | active: 12.6 µM | 
Cc1cc(C)nc(/N=C(\N)Nc2ccc(OCc3ccccc3)cc2)n1 | inconclusive: 8.91 µM [inhibitor, full curve] | 
NC(c1csc(Nc2ccc(C(F)(F)F)cn2)n1)C1CCCCC1 (configuration not stated) | inconclusive: 25.1 µM [inhibitor, single point] | 
CCc1nn2cc(C(=O)c3cc(Cl)ccc3O)cnc2c1-c1ccc(F)cc1 | inconclusive: 31.6 µM [inhibitor, single point] | 
Cc1n(Cc2ccccc2)c2ccccc2[n+]1Cc1ccccc1 | inconclusive: 3.16 µM [inhibitor, partial curve, poor fit] | 
CC(C)(C)c1cc(C(=O)NN)n(Cc2ccc(Cl)cc2Cl)n1 | inconclusive: 11.2 µM [inhibitor, partial curve, poor fit] | 
C/C(=N\NC(=O)c1ccc(Cl)c(Cl)c1)c1ccccn1 | inconclusive: 0.1 µM [inhibitor, full curve] | 
C/C(=N\NC(=O)CSCc1ccc([N+](=O)[O-])cc1)c1ccccc1O | inconclusive: 3.16 µM [inhibitor, single point] | 
Cc1cc(C)cc(C(=O)N(NC(=O)Nc2ccc(Cl)cc2)C(C)(C)C)c1 | active: 22.4 µM | 
Cc1ccccc1Oc1cc(NC(=O)CCCn2nc(C)c([N+](=O)[O-])c2C)cc([N+](=O)[O-])c1 | inconclusive: 2.82 µM [inhibitor, partial curve, poor fit] | 
OC1CCCN(Cc2c3ccccc3cc3ccccc23)C1 (configuration not stated) | inconclusive: 22.4 µM [inhibitor, partial curve, poor fit] | 
CCCCOc1ccccc1NC(=O)c1scc2c1OCCO2 | inconclusive: 3.55 µM [inhibitor, partial curve] | 
COc1cc(-c2cnc3c(NC=O)cc(-c4cccc(C(F)(F)F)c4)cn23)cc(OC)c1OC | inconclusive: 10 µM [inhibitor, partial curve] | 
CN(CC(=O)Nc1ccc(Cl)c(C(F)(F)F)c1)C(=O)c1cccnc1Sc1ccccc1 | inactive | 
